Assay results published in ChEMBL document CHEMBL4888484, “Replenishing the malaria drug discovery pipeline: Screening and hit evaluation of the MMV Hit Generation Library 1 (HGL1) against asexual blood stage Plasmodium falciparum ,using a nano luciferase reporter read-out” (2022).
Hit rate of the full screen: of about 150,000 compounds, about 540 (0.36%) showed an effect of 50% or more. The list shows a part of the results.

Test system: Plasmodium falciparum
Experiment: Primary screen in NF54 nanoGlo assay, in single point, at 2uM, 72h; a lower Z score goes with more inhibition
Type: functional, Erythrocyte
Details: timepoint 72 hour

| SMILES | % Inhibition [%] | Z score |
| --- | --- | --- |
| CCO[C@H]1COC[C@@H]1NC(=O)c1cc(OC)ccn1 | 6 | -0.71 |
| NC(=O)CCN1CCc2onc(-c3cccc4ccccc34)c2C1 | 16 | -2.14 |
| COc1ccc(OC)c(-c2cc(-c3cccnc3)c(C#N)c(N)n2)c1 | 3 | -0.38 |
| O=C1NC(c2ccccc2)=NC12CCN(Cc1c(F)cccc1F)CC2 | 40 | -4.56 |
| COc1ccc(C(=O)N2CC[C@H]3NC(=O)N(c4ccc(Oc5ccccc5)cc4)C(=O)[C@H]32)cc1 | 34 | -3.88 |
| O=C(Cc1csc(-c2ccoc2)n1)N1CCC[C@@H]1CO | -16 | 1.78 |
| Cc1ccc2c(c1)c(C(=O)N[C@@H]1[C@@H]3CCO[C@@H]3[C@H]1N(C)C)nn2C | -20 | 2.92 |
| CC(C)CC(C)CC(=O)Oc1ccc(CC2NC(=O)NC2=O)cc1 (stereo unspecified) | -1 | 0.09 |
| CCC(NC(=O)c1cc(Cl)cn1C)C(O)C(F)(F)F (stereo unspecified) | -15 | 1.35 |
| COC(=O)[C@H]1CCc2nnc(COc3cc(C)ccc3C(C)C)n2C1 | -15 | 2.39 |
| Cc1nc2ccc(NC(=O)c3cnccn3)cc2s1 | -4 | 0.32 |
| Cn1cc([C@@](C)(O)CNC(=O)NCc2ccc3c(c2)CCC3)cn1 | -6 | 0.71 |
| c1cnc(N2CCOCC2)c(CN[C@H]2CCOCC23CCCCC3)c1 | -8 | 1.34 |
| CCNC(N)=NCCc1ccc2[nH]ccc2c1 | -9 | 0.99 |
| COc1ccc(-c2cc(C(=O)NCCc3ccccc3)c3c(-c4ccc(Cl)cc4)[nH]nc3n2)cc1 | -5 | 0.69 |
| Cc1cnc(C)c(NCC(C)N2CCOCC2C)n1 (stereo unspecified) | -12 | 1.34 |
| CN1CCCN(c2ccc(CNC(=O)c3cnn(Cc4ccccc4)c3)cn2)CC1 | -9 | 1.45 |
| Cc1cc2[nH]c(C(=O)Nc3ccc(F)c(F)c3)c(CN3CCOCC3)c2s1 | -11 | 1.05 |
| N#CCc1ccc(Br)c(Cl)c1 | -10 | 1.51 |
| O=C(Nc1ccc(F)c(Cl)c1)C1C2CCCCC21 (stereo unspecified) | -1 | 0.09 |
| Clc1ccccc1-c1nc2ccccc2n1CCC1CCCCC1 | -9 | 1.19 |
| C[C@H](Oc1ccc(Cl)cc1)C(=O)Nc1nc2c(s1)CCC2 | 3 | -0.34 |

| SMILES | % Inhibition [%] | Z score |
| --- | --- | --- |
| COC(=O)C1C2CCC(C2)C1NC(=O)Nc1nccs1 (stereo unspecified) | 7 | -1.26 |
| O=C(NCC1CC12CCc1ccccc12)N1CCC(N2CC=CC2)C1 (stereo unspecified) | -13 | 1.89 |
| CC(C)CO[C@@H](C)c1noc(CN2CCC(NC(C)C)CC2)n1 | 2 | -0.27 |
| CC(=O)N1C[C@@H](COc2ccccc2)[C@H](C2CCN(C(=O)Cc3cccc(C)c3)CC2)C1 | -11 | 1.31 |
| O=C(C[C@@H](c1cccc(Cl)c1)c1ccccc1O)N[C@H]1CC[C@H](O)CC1 | 10 | -1.29 |
| Cc1csc(N(C)C(=O)CCc2cncn2C)n1 | -8 | 1.26 |
| Cc1nsc(C)c1C(=O)NC[C@H]1CCCCN1C(=O)c1c(C)nsc1C | -6 | 0.69 |
| CN(Cc1ccccc1)C(=O)[C@@H]1Cc2nc[nH]c2CN1 | 33 | -3.71 |
| Cc1ccc2nc(CCCNC(=O)c3cnn[nH]3)oc2c1 | -16 | 1.7 |
| CCCc1cc([C@@H]2CCCN2Cc2ccc(OC)c(CN3CCOCC3)c2)no1 | -14 | 1.9 |
| CCN(C(=O)c1c(F)ccc(F)c1F)c1ccncc1 | 1 | -0.23 |
| O=C(COc1ccccc1)Nc1cccc(OCCn2cncn2)c1 | -7 | 0.91 |
| CN1CCCC[C@H]1c1nc(-c2cccnc2Oc2ccccc2)no1 | 3 | -0.52 |
| C[C@@H](c1ccc(Cl)cc1)N(C(=O)c1cccc[n+]1[O-])C1CC1 | 1 | -0.09 |
| COc1cc(N2CCN(C(=O)[C@H]3OCC[C@H]3C)CC2)cc(OC)c1OC | 0 | 0.04 |
| O=C(NC[C@H]1CCCOC1)Nc1ccc2cccnc2c1 | 5 | -0.5 |
| Cc1conc1CNc1ccc(S(C)(=O)=O)cn1 | -5 | 0.85 |
| COc1ccc(S(=O)(=O)N2CCCc3ccccc32)cn1 | 0 | -0.05 |
| Cc1noc(CCCNC(=O)C(=O)Nc2ccc3c(c2)CCC3)n1 | -4 | 0.52 |
| CC[C@H](NC(=O)CCCn1cncn1)c1nc(C)c(C)s1 | 3 | -0.53 |
| CC(C)c1ccc(NC(=O)[C@@H](c2ccc3c(c2)OCO3)N2CCC3(CC2)OCCO3)cc1 | -11 | 1.63 |
